Laboratory results taken from PubChem BioAssay AID651820 (National Center for Advancing Translational Sciences (NCATS), 2012).
Where “and” joins values, the source holds several entries; their conditions need not be identical. Identical values can stand only once. Hit rate of the full screen: of about 340,000 compounds, about 12,000 (3.5%) were called active. Inconclusive means that the source gave no clear call. Such entries were picked first, then a sample of the others. Calls follow the shape of the dose curve; as a rule, active = well fitted inhibition curve with a large enough effect; inconclusive = small, poorly fitted or top-dose-only effect, or another doubt; inactive = no such curve, though single readings can be large or run the other way. A potency beside an inconclusive call is a rough fit, not a confirmed value.

Test: qHTS Assay for Inhibitors of Hepatitis C Virus (HCV)
Settings: Huh7.5.1 HCVcc-Cre (HCVcc is cell-culture hepatitis C virus) infection, luciferase reporter, 44 h; activity change, negative = inhibition: at 41.8 µM (top of the series) unless noted
How it was run: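 Luciferase read-out (15 sec integration) after a 15 min room-temperature substrate step quantifies HCVcc-Cre infection. Cells, 1,000 per well, had compound added 4 h post-plating, then virus at ~0.5 moi, and were cultured 44 h.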
% is scaled to controls: 0 for no effect and ±100 for the full control effect; potency is read from the fitted curve at half-maximal effect; tags tell the direction and shape of the fitted curve.

Question: Which Potency does the source give for `COc1ccc(-c2nn(-c3ccccc3)cc2/C=N/NC(=S)NC(C)C)cc1OC` here?
Answer: inconclusive: 8.91 µM [inhibitor, partial curve]

Question: For `c1cnc2c(Oc3ncnc4sccc34)cccc2c1`, which “activity change, negative = inhibition” value is on record?
Answer: inactive: -2.13%

Question: With `C#CCN1C(C)=C(C(=O)OC)C(c2cccc([N+](=O)[O-])c2)C(C(=O)OCC)=C1C` (centres undefined) as the molecule, how does the Potency read?
Answer: inconclusive: 5.62 µM [inhibitor, single point]

Question: Which Potency does the source give for `COc1cc(/C=N/NC(=O)C(=O)/C=C2\NC(C)(C)Cc3ccccc32)ccc1O` here?
Answer: inconclusive: 14.1 µM [inhibitor, partial curve]

Question: For `CCCn1c(O)c(N=NC(=O)CNC(=O)c2cccnc2)c2ccccc21`, which Potency is on record?
Answer: inconclusive: 2 µM [inhibitor, partial curve]

Question: For `O=C(c1cc2cc(F)ccc2[nH]1)N1CCC2(CC1)OCCO2`, which “activity change, negative = inhibition” value is on record?
Answer: inactive: 14.2%

Question: For `CCOC(=O)N1CCC(NC(=O)c2cc(COc3c(C)cccc3C)on2)CC1`, which Potency is on record?
Answer: inconclusive: 14.1 µM [inhibitor, single point]

Question: With `COc1ccc(-c2nn(-c3ccccc3)cc2CNCc2cccnc2)c(F)c1` as the molecule, how does the Potency read?
Answer: inconclusive: 11.2 µM [inhibitor, single point]

Question: Which Potency does the source give for `O=C(NC(c1cccnc1)C(F)(F)F)c1cc(COc2ccc3c(c2)CCCC3)on1` (centres undefined) here?
Answer: active: 4.47 µM

Question: Which Potency does the source give for `O=C(Nc1cccc(/C=C/c2ccccn2)c1)c1cc(Cl)ccn1` here?
Answer: active: 5.01 µM

Question: With `C=CC[C@]12CCc3ccccc3C1N(c1ccc(C(=O)OCC)cc1)C2=O` (some centres undefined) as the molecule, how does the Potency read?
Answer: inconclusive: 3.16 µM [inhibitor, full curve]

Question: With `CC1(C)CC(=O)C=C(NCCN2CCN(C(=S)NC3CCCCC3)CC2)C1` as the molecule, how does the “activity change, negative = inhibition” value read?
Answer: inactive: 17.5%

Question: With `O=C(NC1CCS(=O)(=O)C1)c1ccc(Br)o1` (centres undefined) as the molecule, how does the “activity change, negative = inhibition” value read?
Answer: inactive: 10.5%

Question: For `Cc1cccc(Oc2ncc(-c3ccc(Cl)cc3)cn2)c1`, which “activity change, negative = inhibition” value is on record?
Answer: inactive: 17.6%

Question: For `Cc1nc(N)nc(N)c1/C=C/C(C)(C)c1ccc(Cl)cc1`, which Potency is on record?
Answer: inconclusive: 4.47 µM [inhibitor, partial curve]

Question: For `CCOc1cc(/C=C2/NC(=O)N(CC(=O)Nc3cccc(C)c3)C2=O)ccc1OCC(N)=O`, which Potency is on record?
Answer: inconclusive: 10 µM [inhibitor, partial curve]

Question: With `COc1ccc(NC(=O)C(c2cc3c(cc2[N+](=O)[O-])OCO3)N(C)c2ccccc2)cc1` (centres undefined) as the molecule, how does the “activity change, negative = inhibition” value read?
Answer: inactive: -18.9%

Question: For `Cc1ccc(C(=O)/C=C/c2c[nH]c3ccccc23)cc1`, which Potency is on record?
Answer: inconclusive: 3.98 µM [inhibitor, full curve, poor fit]

Question: With `CCOC(=O)C1=C(COC(=O)c2ccc(Br)c(S(=O)(=O)N3CCOCC3)c2)NC(=O)NC1C` (centres undefined) as the molecule, how does the Potency read?
Answer: inconclusive: 1.78 µM [inhibitor, full curve, poor fit]

Question: With `Cc1nn(Cc2c(Cl)cccc2Cl)c(C)c1NC(=O)c1cn(-c2ccccc2)nc1-c1ccccc1` as the molecule, how does the “activity change, negative = inhibition” value read?
Answer: inactive: 6.08%

Question: With `Cn1c(=O)cc2c3c(c(N4CCCCC4)ccc31)C(=O)c1ccccc1-2` as the molecule, how does the Potency read?
Answer: inconclusive: 22.4 µM [inhibitor, single point]

Question: For `COc1ccc(CCNC(=O)c2cc(-c3cc(Cl)ccc3O)n[nH]2)cc1OC`, which Potency is on record?
Answer: inconclusive: 31.6 µM [inhibitor, single point]

Question: With `CCOCCn1c(CN(Cc2ccccc2)Cc2ccccc2)nc2c1c(=O)n(C)c(=O)n2C` as the molecule, how does the Potency read?
Answer: inconclusive: 31.6 µM [inhibitor, single point]

Question: With `CCOC(=O)c1ccc(N2Cc3ccccc3C2=N)cc1` as the molecule, how does the “activity change, negative = inhibition” value read?
Answer: inactive: 5.15%

Question: Which “activity change, negative = inhibition” value does the source give for `COCC(C)n1c(SCC(=O)Nc2cc(C)on2)nc2ccccc2c1=O` (centres undefined) here?
Answer: inactive: 25.3%

Question: With `COc1ccccc1C(=O)NC(C)c1cccc2ccccc12` (centres undefined) as the molecule, how does the Potency read?
Answer: inconclusive: 31.6 µM [inhibitor, single point]

Question: For `CCc1ccc(S(=O)(=O)NC2CC(C)(C)NC(C)(C)C2)cc1`, which Potency is on record?
Answer: inconclusive: 31.6 µM [inhibitor, single point]

Question: With `COc1ccc(-c2nnc(NC(=O)c3ccc(F)cc3)o2)cc1` as the molecule, how does the Potency read?
Answer: inconclusive: 10 µM [inhibitor, single point]

Question: For `CNC(=S)N(CCc1c(C)[nH]c2ccc(C)cc12)Cc1cccs1`, which Potency is on record?
Answer: active: 10 µM

Question: Which Potency does the source give for `CCOc1ccc(N2CC(O)Cn3c2nc2c3c(=O)n(CCCc3ccccc3)c(=O)n2C)cc1` (centres undefined) here?
Answer: inconclusive: 22.4 µM [inhibitor, single point] and inconclusive: 31.6 µM [inhibitor, single point]

Question: With `Cc1cc(C)nc(NC(N)=NCCc2ccccc2)n1` as the molecule, how does the Potency read?
Answer: active: 11.2 µM

Question: Which “activity change, negative = inhibition” value does the source give for `CCNC(=S)N(CCc1c(C)[nH]c2ccc(Cl)cc12)Cc1cccnc1` here?
Answer: inactive: -22.5%

Question: With `C/C(=N\N1CCN(c2ccccc2)CC1)c1cccs1` as the molecule, how does the Potency read?
Answer: inconclusive: 3.16 µM [inhibitor, single point]

Question: For `CCOc1ccc(NC(=O)CN(C)C(=O)c2c(C)nn(-c3ccccc3)c2Cl)cc1OCC`, which Potency is on record?
Answer: inconclusive: 3.16 µM [inhibitor, partial curve]

Question: With `CCCS(=O)(=O)N1CCCC(C(=O)NCCCOCC)C1` (centres undefined) as the molecule, how does the “activity change, negative = inhibition” value read?
Answer: inactive: 8.45%

Question: With `COc1ccccc1CCC(=O)NNC(=O)c1cccs1` as the molecule, how does the “activity change, negative = inhibition” value read?
Answer: inactive: 20.3%

Question: With `CC(C)(C)OC(=O)N1CCCC(C(=O)Nc2cccc(C(=O)N3CCOCC3)c2)C1` (centres undefined) as the molecule, how does the Potency read?
Answer: inconclusive: 0.316 µM [inhibitor, full curve, poor fit]

Question: For `CC1CCC(NC(=O)CCS(=O)(=O)c2ccc3c(c2)NC(=O)CS3)CC1` (centres undefined), which “activity change, negative = inhibition” value is on record?
Answer: inactive: -1.93%

Question: For `CC1CCCN(CCOCCOc2ccccc2-c2ccccc2)C1` (centres undefined), which Potency is on record?
Answer: inconclusive: 10 µM [inhibitor, partial curve, poor fit]

Question: With `C[C@]12CC[C@@H]3c4ccc(O[C@@H]5O[C@H](C(=O)O)[C@@H](O)[C@H](O)[C@H]5O)cc4CC[C@H]3[C@@H]1C[C@@H](O)[C@@H]2O` as the molecule, how does the Potency read?
Answer: inconclusive: 14.1 µM [inhibitor, single point]

Question: Which “activity change, negative = inhibition” value does the source give for `CCCOC(=O)c1ccc(NC(=O)CCOc2ccccc2)cc1` here?
Answer: inactive: 13.5%

Question: Which Potency does the source give for `O=C(COc1ccc2ccccc2c1)Nc1ccncc1` here?
Answer: inconclusive: 31.6 µM [inhibitor, single point]

Question: For `COc1cccc(/C=N/n2c(C)nc3ccccc32)c1OC`, which Potency is on record?
Answer: active: 8.91 µM

Question: Which Potency does the source give for `CSCCC(NC(=O)COc1ccccc1)C(=O)N1CCN(c2cccc(C(F)(F)F)c2)CC1` (centres undefined) here?
Answer: inconclusive: 31.6 µM [inhibitor, single point]

Question: With `CCCN(CC(=O)Nc1ccccc1C)C(=O)c1cccc(S(=O)(=O)N2CCc3ccccc3C2)c1` as the molecule, how does the Potency read?
Answer: active: 22.4 µM

Question: For `c1ccc(-c2cnc(CSc3ncnc4sccc34)o2)cc1`, which Potency is on record?
Answer: active: 11.2 µM

Question: For `COc1ccc(CCC(=O)NCCS(=O)(=O)N2CCN(c3ccc(OC)cc3)CC2)cc1`, which Potency is on record?
Answer: inconclusive: 11.2 µM [inhibitor, partial curve]

Question: For `Cc1nc(-c2ccc(F)cc2)c(CC(=O)NCC(=O)Nc2ccc(F)c(F)c2)s1`, which Potency is on record?
Answer: inconclusive: 10 µM [inhibitor, partial curve]

Question: Which Potency does the source give for `O=C(COC(=O)c1cccc(NC(=O)c2ccco2)c1)c1ccc(Br)cc1` here?
Answer: inconclusive: 22.4 µM [inhibitor, single point]

Question: For `CCc1nnc(NC(=O)c2ccc(S(=O)(=O)N(C)c3ccccc3)cc2)o1`, which Potency is on record?
Answer: active: 7.08 µM

Question: Which “activity change, negative = inhibition” value does the source give for `Cc1ccc(/C=N/NC(=O)c2ccc(Cn3cc([N+](=O)[O-])cn3)o2)cc1` here?
Answer: inactive: -9.71%

Question: Which Potency does the source give for `CCOC(=O)c1sc(-c2ccccc2)cc1NC(=O)Nc1ccccc1` here?
Answer: active: 10 µM

Question: With `CC1(C)NC(=O)N(CC(=O)OCc2cc(=O)n3cc(Br)ccc3n2)C1=O` as the molecule, how does the “activity change, negative = inhibition” value read?
Answer: inactive: 20.2%

Question: With `Cc1ccc(Nc2n[nH]c(C)c2[N+](=O)[O-])cc1C` as the molecule, how does the Potency read?
Answer: inconclusive: 31.6 µM [inhibitor, single point]

Question: For `O=C(OCc1c(-c2ccccc2)ncc2ccccc12)c1cccc(Br)c1`, which Potency is on record?
Answer: inconclusive: 25.1 µM [inhibitor, single point]

Question: With `CC1CCCN(S(=O)(=O)c2cccc(-c3cn4cccnc4n3)c2)C1` (centres undefined) as the molecule, how does the Potency read?
Answer: inconclusive: 12.6 µM [inhibitor, partial curve, poor fit]

Question: With `CC(C)(C)c1cnnn1-c1ccc(/C=N/Nc2ccc([N+](=O)[O-])cc2)cc1` as the molecule, how does the Potency read?
Answer: inconclusive: 31.6 µM [inhibitor, single point]

Question: With `Cc1ccc(C(=O)NCCCNC(=O)c2ccc(Cl)cc2)cn1` as the molecule, how does the Potency read?
Answer: inconclusive: 4.47 µM [inhibitor, single point]

Question: For `C=CCn1c(SCC(=O)Nc2cccc(S(N)(=O)=O)c2)nc2sc(C)c(C)c2c1=O`, which Potency is on record?
Answer: inconclusive: 11.2 µM [inhibitor, partial curve, poor fit]

Question: Which Potency does the source give for `O=C(Cc1ccc2c(c1)OCCO2)Nc1cc(Cl)ccc1N1CCOCC1` here?
Answer: inconclusive: 10 µM [inhibitor, partial curve]

Question: Which Potency does the source give for `C[C@@]12C(=O)N(c3cccc(Br)c3)C(=O)N1[C@H](c1ccc(Cl)cc1)[C@@H]1C(=O)N(C3CCCCC3)C(=O)[C@@H]12` here?
Answer: inconclusive: 31.6 µM [inhibitor, single point]

Question: With `O=[N+]([O-])c1cnc(Nc2ccccc2)nc1Nc1ccccc1` as the molecule, how does the “activity change, negative = inhibition” value read?
Answer: inactive: 4.48%

Question: For `COC(=O)c1ccc(-n2c(C)cc(/C=N/Nc3nc(C)cc(=O)[nH]3)c2C)cc1`, which Potency is on record?
Answer: inconclusive: 25.1 µM [inhibitor, single point]

Question: Which Potency does the source give for `COc1cc(NC(=O)Nc2cccc3cccnc23)cc(OC)c1OC` here?
Answer: inconclusive: 11.2 µM [inhibitor, partial curve]

Question: For `CC(C)(C)NCC(O)COc1ccccc1C(C)(C)C` (centres undefined), which Potency is on record?
Answer: inconclusive: 15.8 µM [inhibitor, single point]

Question: Which “activity change, negative = inhibition” value does the source give for `COc1ccccc1-c1ccc(Nc2cccc(C(F)(F)F)c2)nn1` here?
Answer: inactive: -12.8%

Question: With `O=C(c1cc(-c2ccc(O)cc2)on1)N1CCCC1` as the molecule, how does the “activity change, negative = inhibition” value read?
Answer: inactive: -1.98%

Question: Which Potency does the source give for `Cc1cccc(C(=O)Nc2cc(S(=O)(=O)N3CCOCC3)ccc2N2CCCC2)c1` here?
Answer: inconclusive: 10 µM [inhibitor, partial curve]

Question: Which Potency does the source give for `CN(C)/N=C1\CCS(=O)(=O)c2sccc21` here?
Answer: inconclusive: 31.6 µM [inhibitor, single point]
